The values below come from patent US20010029293A1 (ICOS, published 2001).

Assay [1] deals with T1, αd/CD18 on transfected CHO cells (human, UniProt Q13349 18-1161; P05107).
T1 construct: whole, on cells; also called alpha d/CD18
Description: flow cytometry, soluble chimera on transfected CHO cells. On the technique in general: In flow cytometry, cells or beads pass a laser one at a time.

For assay [2], the target named is T1, αd/CD18 on transfected CHO cells. Description: adhesion of transfected CHO cells to coated wells.

B1: ICAM-1/IgG chimera (Fc fusion, UniProt P05362 28-480, looked up)
chain: QTSVSPSKVILPRGGSVLVTCSTSCDQPKLLGIETPLPKKELLLPGNNRKVYELSNVQEDSQPMCYSNCPDGQSTAKTFLTVYWTPERVELAPLPSWQPVGKNLTLRCQVEGGAPRANLTVVLLRGEKELKREPAVGEPAEVTTTVLVRRDHHGANFSCRTELDLRPQGLELFENTSAPYQLQTFVLPATPPQLVSPRVLEVDTQGTVVCSLDGLFPVSEAQVHLALGDQRLNPTVTYGNDSFSAKASVSVTAEDEGTQRLTCAVILGNQSQETLQTVTIYSFPAPNVILTKPEVSEGTEVTVKCEAHPRAKVTLNGVPAQPLGPRAQLLLKATPEDNGRSFSCSATLEVAGQLIHKNQTRELRVLYGPRLDERDCPGNWTWPENSQQTPMCQAWGNPLPELKCLKDGTFPLPIGESVTVTRDLEGTYLCRARSTQGEVTRKVTVNVLSPRYE[human IgG1 Fc not spelt out]
Regarding B1, the binding result in assay [1] is reported as “no binding (tested: 5 µg/ml)”.

B2: VCAM-1/IgG chimera (Fc fusion, UniProt P19320 25-698, looked up)
chain: FKIETTPESRYLAQIGDSVSLTCSTTGCESPFFSWRTQIDSPLNGKVTNEGTTSTLTMNPVSFGNEHSYLCTATCESRKLEKGIQVEIYSFPKDPEIHLSGPLEAGKPITVKCSVADVYPFDRLEIDLLKGDHLMKSQEFLEDADRKSLETKSLEVTFTPVIEDIGKVLVCRAKLHIDEMDSVPTVRQAVKELQVYISPKNTVISVNPSTKLQEGGSVTMTCSSEGLPAPEIFWSKKLDNGNLQHLSGNATLTLIAMRMEDSGIYVCEGVNLIGKNRKEVELIVQEKPFTVEISPGPRIAAQIGDSVMLTCSVMGCESPSFSWRTQIDSPLSGKVRSEGTNSTLTLSPVSFENEHSYLCTVTCGHKKLEKGIQVELYSFPRDPEIEMSGGLVNGSSVTVSCKVPSVYPLDRLEIELLKGETILENIEFLEDTDMKSLENKSLEMTFIPTIEDTGKALVCQAKLHIDDMEFEPKQRQSTQTLYVNVAPRDTTVLVSPSSILEEGSSVNMTCLSQGFPAPKILWSRQLPNGELQPLSENATLTLISTKMEDSGVYLCEGINQAGRSRKEVELIIQVTPKDIKLTAFPSESVKEGDTVIISCTCGNVPETWIILKKKAETGDTVLKSIDGAYTIRKAQLKDAGVYECESKNKVGSQLRSLTLDVQGRENNKDYFSPE[human IgG1 Fc not spelt out]
B2: the binding result in assay [2] is listed as “no binding”.
